Laboratory results published in paper PMC5540273 (PLoS ONE, 2017).
For part of these data: Most of the strong results are listed elsewhere, so they are rarer here than in the full data. This is a selection; strong and weak results do not stand in their true shares.

Test system: PKN2
Conditions: concentration: 1 μM,replicates: in singlicate; n = 1
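Note: KINOMEscan kinase panel screen.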

Structure (SMILES) | %Inh [%]
O=C1NC(=O)C(c2ccc(Cl)cc2)=C1Nc1ccc(O)c(Cl)c1 [SB-405367] | 16
O=C1NC(=O)C(c2ccc(Cl)cc2)=C1Nc1ccccc1 [SB-317661] | 0
COc1cccc(C2=C(Nc3ccc(SC)cc3)C(=O)NC2=O)c1 [SB-331032] | 0
Cc1ccc(C)c(Oc2nccc(-c3c(-c4ccc(F)cc4)ncn3C3CCNCC3)n2)c1.O=C(O)C(F)(F)F.O=C(O)C(F)(F)F.O=C(O)C(F)(F)F [SB-284852] | 32
O=C1NC(=O)C(c2ccccc2Cl)=C1Nc1cccc(C(=O)O)c1 [SB-390526] | 0
O=C1NC(=O)C(c2ccccc2)=C1Nc1cc(Cl)c(O)c(Cl)c1 [SB-390530] | 0
CSc1ccc(NC2=C(c3cccc(Cl)c3)C(=O)NC2=O)cc1 [SB-341528] | 23
O=C1NC(=O)c2c1c(-c1ccccc1)cc1[nH]c3ccc(O)cc3c21 | 100
Cc1cc(C)cc(Oc2nccc(-c3c(-c4ccc(F)cc4)ncn3C3CCNCC3)n2)c1.O=C(O)C(F)(F)F.O=C(O)C(F)(F)F.O=C(O)C(F)(F)F [SB-284851] | 0
COc1ccc(C2=C(Nc3cccc(Cl)c3)C(=O)NC2=O)cc1 [SB-326892] | 0
O=C(O)c1ccc(-c2nc(-c3ccc(F)cc3)c(-c3ccncc3)[nH]2)cc1 [SB-202620] | 21
O=C1NC(=O)C(c2ccccc2)=C1Nc1ccc(Cl)c(C(=O)O)c1 [SB-390532] | 0
O=C1NC(=O)C(c2ccc(Cl)cc2)=C1Nc1cccc(C(=O)O)c1 [SB-360737] | 0
O=C1NC(=O)C(c2ccccc2Cl)=C1Nc1ccccc1 [SB-376715] | 21
CS(=O)(=O)c1ccccc1-c1nc(-c2ccc(F)cc2)c(-c2ccncc2)[nH]1 [SB-213663] | 21
O=C1NC(=O)C(c2ccc(Cl)cc2)=C1Nc1cccc(O)c1 [SB-333613] | 9

Test system: PLK1
Conditions: concentration: 1 μM,replicates: in singlicate; n = 1

Structure (SMILES) | %Inh [%]
O=C1NC(=O)C(c2ccc(Cl)cc2)=C1Nc1ccc(O)c(Cl)c1 [SB-405367] | 4
O=C1NC(=O)C(c2ccc(Cl)cc2)=C1Nc1ccccc1 [SB-317661] | 23
COc1cccc(C2=C(Nc3ccc(SC)cc3)C(=O)NC2=O)c1 [SB-331032] | 24
Cc1ccc(C)c(Oc2nccc(-c3c(-c4ccc(F)cc4)ncn3C3CCNCC3)n2)c1.O=C(O)C(F)(F)F.O=C(O)C(F)(F)F.O=C(O)C(F)(F)F [SB-284852] | 18
O=C1NC(=O)C(c2ccccc2Cl)=C1Nc1cccc(C(=O)O)c1 [SB-390526] | 6
O=C1NC(=O)C(c2ccccc2)=C1Nc1cc(Cl)c(O)c(Cl)c1 [SB-390530] | 30
CSc1ccc(NC2=C(c3cccc(Cl)c3)C(=O)NC2=O)cc1 [SB-341528] | 13
O=C1NC(=O)c2c1c(-c1ccccc1)cc1[nH]c3ccc(O)cc3c21 | 76
Cc1cc(C)cc(Oc2nccc(-c3c(-c4ccc(F)cc4)ncn3C3CCNCC3)n2)c1.O=C(O)C(F)(F)F.O=C(O)C(F)(F)F.O=C(O)C(F)(F)F [SB-284851] | 14
COc1ccc(C2=C(Nc3cccc(Cl)c3)C(=O)NC2=O)cc1 [SB-326892] | 38
O=C(O)c1ccc(-c2nc(-c3ccc(F)cc3)c(-c3ccncc3)[nH]2)cc1 [SB-202620] | 0
O=C1NC(=O)C(c2ccccc2)=C1Nc1ccc(Cl)c(C(=O)O)c1 [SB-390532] | 0
O=C1NC(=O)C(c2ccc(Cl)cc2)=C1Nc1cccc(C(=O)O)c1 [SB-360737] | 0
O=C1NC(=O)C(c2ccccc2Cl)=C1Nc1ccccc1 [SB-376715] | 6
CS(=O)(=O)c1ccccc1-c1nc(-c2ccc(F)cc2)c(-c2ccncc2)[nH]1 [SB-213663] | 0
O=C1NC(=O)C(c2ccc(Cl)cc2)=C1Nc1cccc(O)c1 [SB-333613] | 35

Test system: PLK2
Conditions: concentration: 1 μM,replicates: in singlicate; n = 1

Structure (SMILES) | %Inh [%]
O=C1NC(=O)C(c2ccc(Cl)cc2)=C1Nc1ccc(O)c(Cl)c1 [SB-405367] | 32
O=C1NC(=O)C(c2ccc(Cl)cc2)=C1Nc1ccccc1 [SB-317661] | 6
COc1cccc(C2=C(Nc3ccc(SC)cc3)C(=O)NC2=O)c1 [SB-331032] | 27
Cc1ccc(C)c(Oc2nccc(-c3c(-c4ccc(F)cc4)ncn3C3CCNCC3)n2)c1.O=C(O)C(F)(F)F.O=C(O)C(F)(F)F.O=C(O)C(F)(F)F [SB-284852] | 0
O=C1NC(=O)C(c2ccccc2Cl)=C1Nc1cccc(C(=O)O)c1 [SB-390526] | 0
O=C1NC(=O)C(c2ccccc2)=C1Nc1cc(Cl)c(O)c(Cl)c1 [SB-390530] | 0
CSc1ccc(NC2=C(c3cccc(Cl)c3)C(=O)NC2=O)cc1 [SB-341528] | 0
O=C1NC(=O)c2c1c(-c1ccccc1)cc1[nH]c3ccc(O)cc3c21 | 97.2
Cc1cc(C)cc(Oc2nccc(-c3c(-c4ccc(F)cc4)ncn3C3CCNCC3)n2)c1.O=C(O)C(F)(F)F.O=C(O)C(F)(F)F.O=C(O)C(F)(F)F [SB-284851] | 0
COc1ccc(C2=C(Nc3cccc(Cl)c3)C(=O)NC2=O)cc1 [SB-326892] | 0
O=C(O)c1ccc(-c2nc(-c3ccc(F)cc3)c(-c3ccncc3)[nH]2)cc1 [SB-202620] | 15
O=C1NC(=O)C(c2ccccc2)=C1Nc1ccc(Cl)c(C(=O)O)c1 [SB-390532] | 0
O=C1NC(=O)C(c2ccc(Cl)cc2)=C1Nc1cccc(C(=O)O)c1 [SB-360737] | 0
O=C1NC(=O)C(c2ccccc2Cl)=C1Nc1ccccc1 [SB-376715] | 0
CS(=O)(=O)c1ccccc1-c1nc(-c2ccc(F)cc2)c(-c2ccncc2)[nH]1 [SB-213663] | 0
O=C1NC(=O)C(c2ccc(Cl)cc2)=C1Nc1cccc(O)c1 [SB-333613] | 28
